# Test results taken from the supplement of paper PMC10037445.
# Where “and” joins values, the source holds several entries; their conditions need not be identical. Equal entries are not always repeated. In all, about 2,900 compounds were measured (“IRF Lucia reporter activity, fold change vs agonist alone”: median about 0.9, highest 2% from about 2.8 on). The list shows a part of the results.
# Columns and labels:
# RAW-Dual [1] = assay: IRF Lucia reporter activity, fold change vs agonist alone; cytotoxicity flag (confluency mask): not cytotoxic; higher = enhanced IRF activity
# Procedure, shortened: (§1)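 After 50 nL of library stock was delivered by pin tool to RAW-Dual macrophages (50,000 cells/well, DMEM, 384-well plates), a PRR agonist was added 1 h later and the plates were kept at 37 °C, 5% CO2. Twenty hours later, IRF was read from supernatant by QuantiLuc luminescence and NF-κB by QuantiBlue absorbance at 620 nm. Reporter activity is stated as fold change over agonist-alone wells. Wells with IncuCyte confluency under 70% of agonist controls in both mask sets were counted as cytotoxic.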
# RAW-Dual [2] = assay: IRF Lucia reporter activity, fold change vs agonist alone; higher = enhanced IRF activity; conditions: agonist: MPLA (TLR4) […]
# Procedure, shortened: as §1
# RAW-Dual [3] = assay: IRF Lucia reporter activity, fold change vs agonist alone; cytotoxicity flag (confluency mask): cytotoxic (confluency <70% of control); higher = enhanced IRF activity
# Procedure, shortened: as §1
# [4] = agonist: 3'3'-cGAMP (STING) 10 ug/mL
# [5] = library stock concentration (final ~1000-fold dilution): 10 mM, cytotoxicity flag (confluency mask): not cytotoxic
smiles,measurement,setting,value
Cc1c(NC(=O)c2cc(C(N)=O)nc3cc(F)ccc23)c(C(F)(F)F)nn1Cc1ccc(C#N)cc1 (library stock concentration (final ~1000-fold dilution): 10 mM),IRF Lucia reporter activity,RAW-Dual [1]; [4],0.754
same,IRF Lucia reporter activity,RAW-Dual [1]; agonist: LPS (TLR4) 0.1 ug/mL,1.2
CN(C)CCC(c1ccccc1)c1ccccn1.O=C(O)/C=C\C(=O)O (stereo unspecified),IRF Lucia reporter activity,RAW-Dual [2]; [5],1.17
CN(C)CCC(c1ccccc1)c1ccccn1.O=C(O)/C=C\C(=O)O (stereo unspecified) (library stock concentration (final ~1000-fold dilution): 10 mM),IRF Lucia reporter activity,RAW-Dual [1]; [4],1.11
same,IRF Lucia reporter activity,RAW-Dual [1]; agonist: LPS (TLR4) 0.1 ug/mL,1.34
Nc1nc(=O)n(C2CSC(CO)O2)cc1F (stereo unspecified),IRF Lucia reporter activity,RAW-Dual [2]; [5],1.01
Nc1nc(=O)n(C2CSC(CO)O2)cc1F (stereo unspecified) (library stock concentration (final ~1000-fold dilution): 10 mM),IRF Lucia reporter activity,RAW-Dual [1]; [4],1.04
same,IRF Lucia reporter activity,RAW-Dual [1]; agonist: LPS (TLR4) 0.1 ug/mL,0.992
Cc1ccc(NS(=O)(=O)c2ccc3c(c2)C2C=CCC2C(c2ccc(C(=O)O)cc2)N3)cc1C (stereo unspecified) (library stock concentration (final ~1000-fold dilution): 10 mM),IRF Lucia reporter activity,RAW-Dual [1]; [4],0.408
same,IRF Lucia reporter activity,RAW-Dual [1]; agonist: LPS (TLR4) 0.1 ug/mL,0.462
O=c1cc(-c2ccc(O)cc2)oc2cc(O)c([C@@H]3O[C@H](CO)[C@@H](O)[C@H](O)[C@H]3O)c(O)c12 (library stock concentration (final ~1000-fold dilution): 10 mM),IRF Lucia reporter activity,RAW-Dual [1]; [4],0.797
same,IRF Lucia reporter activity,RAW-Dual [1]; agonist: LPS (TLR4) 0.1 ug/mL,1.06
Cc1cc2c(cc1S(N)(=O)=O)S(=O)(=O)CCC2 (library stock concentration (final ~1000-fold dilution): 10 mM),IRF Lucia reporter activity,RAW-Dual [1]; [4],1.08
same,IRF Lucia reporter activity,RAW-Dual [1]; agonist: LPS (TLR4) 0.1 ug/mL,1.01
Cc1cc2c(cc1S(N)(=O)=O)S(=O)(=O)CCC2,IRF Lucia reporter activity,RAW-Dual [2]; [5],1.1
COc1cc(-c2cn(C)c(=O)c3cnccc23)c(OC)cc1CN(C)C (library stock concentration (final ~1000-fold dilution): 2 mM),IRF Lucia reporter activity,RAW-Dual [1]; [4],1.05
same,IRF Lucia reporter activity,RAW-Dual [1]; agonist: LPS (TLR4) 0.1 ug/mL,0.827
Cc1cc(C(=O)NOCCO)c(Nc2ccc(I)cc2F)n(C)c1=O,IRF Lucia reporter activity,RAW-Dual [2]; [5],2.81
Cc1cc(C(=O)NOCCO)c(Nc2ccc(I)cc2F)n(C)c1=O (library stock concentration (final ~1000-fold dilution): 10 mM),IRF Lucia reporter activity,RAW-Dual [1]; [4],0.824
same,IRF Lucia reporter activity,RAW-Dual [1]; agonist: LPS (TLR4) 0.1 ug/mL,2.13
Cc1nc(Nc2cnn(C3CCNCC3)c2)nc2c1N(C)C(=O)c1cc3ccccc3cc1N2C (library stock concentration (final ~1000-fold dilution): 10 mM),IRF Lucia reporter activity,RAW-Dual [3]; [4],1.96
same,IRF Lucia reporter activity,RAW-Dual [3]; agonist: LPS (TLR4) 0.1 ug/mL,3.05
Cc1nc(Nc2cnn(C3CCNCC3)c2)nc2c1N(C)C(=O)c1cc3ccccc3cc1N2C,IRF Lucia reporter activity,"RAW-Dual [2]; library stock concentration (final ~1000-fold dilution): 10 mM, cytotoxicity flag (confluency mask): cytotoxic (confluency <70% of control)",3.71
NC(=O)c1cnc(NCCc2ccc(O)c(Cl)c2)nc1NCc1ccccc1 (library stock concentration (final ~1000-fold dilution): 10 mM),IRF Lucia reporter activity,RAW-Dual [3]; [4],0.0146
same,IRF Lucia reporter activity,RAW-Dual [3]; agonist: LPS (TLR4) 0.1 ug/mL,0.0156
CC(C)(CNC(=O)c1cccc(-c2noc(C(F)(F)F)n2)c1)c1coc(-c2ccccc2)n1 (library stock concentration (final ~1000-fold dilution): 10 mM),IRF Lucia reporter activity,RAW-Dual [1]; [4],0.977
same,IRF Lucia reporter activity,RAW-Dual [1]; agonist: LPS (TLR4) 0.1 ug/mL,0.867
CCNC(=O)Nc1ccc(-c2nc(N3CCOCC3C)c3c(n2)C(C)(C)S(=O)(=O)C3)cc1 (stereo unspecified) (library stock concentration (final ~1000-fold dilution): 10 mM),IRF Lucia reporter activity,RAW-Dual [1]; [4],0.489
same,IRF Lucia reporter activity,RAW-Dual [1]; agonist: LPS (TLR4) 0.1 ug/mL,0.946
COc1cc2c(cc1OC)C(=O)C(CC1CCN(Cc3ccccc3)CC1)C2.Cl (stereo unspecified) (library stock concentration (final ~1000-fold dilution): 10 mM water),IRF Lucia reporter activity,RAW-Dual [1]; [4],1.14
same,IRF Lucia reporter activity,RAW-Dual [1]; agonist: LPS (TLR4) 0.1 ug/mL,0.724
COc1cc2c(cc1OC)C(=O)C(CC1CCN(Cc3ccccc3)CC1)C2.Cl (stereo unspecified),IRF Lucia reporter activity,"RAW-Dual [2]; library stock concentration (final ~1000-fold dilution): 10 mM water, cytotoxicity flag (confluency mask): not cytotoxic",1.25
Cc1ccc(Nc2c(F)cccc2Cl)c(CC(=O)O)c1 (library stock concentration (final ~1000-fold dilution): 10 mM),IRF Lucia reporter activity,RAW-Dual [1]; [4],0.873
same,IRF Lucia reporter activity,RAW-Dual [1]; agonist: LPS (TLR4) 0.1 ug/mL,0.891
Cc1ccc(Nc2c(F)cccc2Cl)c(CC(=O)O)c1,IRF Lucia reporter activity,RAW-Dual [2]; [5],0.896
O=C(O)c1cc(O)c2c(c1)C(=O)c1cccc(O)c1C2=O,IRF Lucia reporter activity,RAW-Dual [2]; [5],1.03
O=C(O)c1cc(O)c2c(c1)C(=O)c1cccc(O)c1C2=O (library stock concentration (final ~1000-fold dilution): 10 mM),IRF Lucia reporter activity,RAW-Dual [1]; [4],1.01 and 0.974
same,IRF Lucia reporter activity,RAW-Dual [1]; agonist: LPS (TLR4) 0.1 ug/mL,1.09 and 1.15
CC(Oc1ccc2c(c1)OCCn1cc(-c3ncnn3C(C)C)nc1-2)C(N)=O (stereo unspecified) (library stock concentration (final ~1000-fold dilution): 10 mM),IRF Lucia reporter activity,RAW-Dual [1]; [4],0.388
same,IRF Lucia reporter activity,RAW-Dual [1]; agonist: LPS (TLR4) 0.1 ug/mL,1.76
Cl.NC1=NCC2c3ccccc3Cc3ccccc3N12 (stereo unspecified),IRF Lucia reporter activity,RAW-Dual [2]; [5],1.21
Cl.NC1=NCC2c3ccccc3Cc3ccccc3N12 (stereo unspecified) (library stock concentration (final ~1000-fold dilution): 10 mM),IRF Lucia reporter activity,RAW-Dual [1]; [4],1.09
same,IRF Lucia reporter activity,RAW-Dual [1]; agonist: LPS (TLR4) 0.1 ug/mL,1.42
O=c1cc(-c2cccc3c2Sc2ccccc2S3)oc(N2CCOCC2)c1 (library stock concentration (final ~1000-fold dilution): 10 mM),IRF Lucia reporter activity,RAW-Dual [1]; [4],0.647
same,IRF Lucia reporter activity,RAW-Dual [1]; agonist: LPS (TLR4) 0.1 ug/mL,5.22
O=c1cc(-c2cccc3c2Sc2ccccc2S3)oc(N2CCOCC2)c1,IRF Lucia reporter activity,RAW-Dual [2]; [5],6.25
